B1: PhoQ; a variant is named by its letters at X, in order, P23837 (parent)
chain: MKKLLRLFFPLSLRVRFLLATAAVVLVLSLAYGMVALIGYSVSFDKTTFRLLRGESNLFYTLAKWENNKLHVELPENIDKQSPTMTLIYDENGQLLWAQRDVPWLMKMIQPDWLKSNGFHEIEADVNDTSLLLSGDHSIQQQLQEVREDDDDAEMTHSVAVNVYPATSRMPKLTIVVVDTIPVELKSSYMVWSWFIYVLSANLLLVIPLLWVAAWWSLRPIEALAKEVRELEEHNRELLNPATTRELTSLVRNLNRLLKSERERYDKYRTTLTDLTHSLKTPLXXLQXXLRSLRSEKMSVSDAEPVMLEQISRISQQIGYYLHRASMRGGTLLSRELHPVAPLLDNLTSALNKVYQRKGVNISLDISPEISFVGEQNDFVEVMGNVLDNACKYCLEFVEISARQTDEHLYIVVEDDGPGIPLSKREVIFDRGQRVDTLRPGQGVGLAVAREITEQYEGKIVAGESMLGGARMEVIFGRQHSAPKDE

Some of the results follow. Some results are limits rather than exact numbers.

Variants of B1 are the subject of the assay. Kind of assay: enrichment ratio after two sorts for PhoP signalling (ratio (wild type AVST 3.29)); higher = more functional. As to conditions: with PhoP (E. coli).
LTAK: the enrichment ratio was not above 0.25.

GCVR: the enrichment ratio was not above 0.25.

With NRPN, the enrichment ratio was not above 0.25. Next, LRPV: not above 0.25; KCHN: 3.86; GNTG: not above 0.25.

On to GLSF, for which the enrichment ratio came out at 4.58. On to TPCR, for which the enrichment ratio was not above 0.25. The same measure for HLYG: not above 0.25. As for VSFQ, the enrichment ratio is not above 0.25. Next, EVMV: not above 0.25. The same measure for HRDT: not above 0.25; for GCMH: 5.77; for VRFV: not above 0.25. The same measure for MQYR: not above 0.25; for HNMG: not above 0.25; for QYSE: not above 0.25. Turning to NKDM, the enrichment ratio is not above 0.25. The same measure for AQDR: not above 0.25; for STYD: not above 0.25. The same measure for KGFT: not above 0.25. For the variant QHGW, the enrichment ratio is not above 0.25. The same measure for LMIL: not above 0.25.

Regarding TADN, the enrichment ratio is not above 0.25. Next, PQDQ: not above 0.25. The same measure for RKKA: not above 0.25. The same measure for VFFE: not above 0.25; for MKSM: not above 0.25. Regarding ILPF, the enrichment ratio was not above 0.25. Next, WHVF: not above 0.25; LEDG: not above 0.25. Next, TDEP: not above 0.25; YRWP: not above 0.25. As for WDVA, the enrichment ratio was not above 0.25.

As to SKDH, the enrichment ratio is not above 0.25.

Regarding LYCG, the enrichment ratio is not above 0.25.

On to QSYA, for which the enrichment ratio came out at 1.81.

Regarding RCSD, the enrichment ratio was not above 0.25. The same measure for IMAM: not above 0.25.

KMCH: the enrichment ratio is not above 0.25.

For KVPP, the enrichment ratio was not above 0.25.

For KLYY, the enrichment ratio was not above 0.25. Next, LRYP: not above 0.25. Consider KLTH, for which the enrichment ratio is not above 0.25.

QLAP: the enrichment ratio was not above 0.25. The same measure for WHIS: not above 0.25. Next, DIQK: not above 0.25. Consider YAPQ, for which the enrichment ratio is not above 0.25. In the case of ILPM, the enrichment ratio is not above 0.25. Next, VSQW: not above 0.25; RDKN: not above 0.25. Turning to IIME, the enrichment ratio is not above 0.25. For the variant FSPP, the enrichment ratio is not above 0.25. Next, NVLM: not above 0.25; TCHY: 5.9; MTQA: not above 0.25. Consider WPPW, for which the enrichment ratio is not above 0.25. The same measure for IMMT: not above 0.25; for PQIA: not above 0.25. Next, EYTN: not above 0.25; YDDP: not above 0.25; SVEY: not above 0.25. For the variant IAWN, the enrichment ratio came out at 6.67.

Take PATV: the enrichment ratio is not above 0.25. Next, STKN: not above 0.25; AGTF: 3.25. On to DRAA, for which the enrichment ratio was not above 0.25. Next, ELIG: not above 0.25; VESN: not above 0.25.

HNCQ: the enrichment ratio is not above 0.25. With WREY, the enrichment ratio is not above 0.25. Take FLSV: the enrichment ratio is not above 0.25. Next, LGTI: not above 0.25. Next, KIAD: not above 0.25; SHGT: not above 0.25; DGNA: not above 0.25. Take IAQA: the enrichment ratio is not above 0.25. For YLNR, the enrichment ratio was not above 0.25. Next, SGPE: not above 0.25. Take IDFE: the enrichment ratio was not above 0.25.

As to EVFF, the enrichment ratio is not above 0.25.

On to QHLY, for which the enrichment ratio was not above 0.25.

Consider YIDD, for which the enrichment ratio was not above 0.25. Regarding SHMT, the enrichment ratio is not above 0.25. The same measure for HYLV: not above 0.25; for KSEQ: not above 0.25; for QSGK: not above 0.25. Next, VYTH: not above 0.25. The same measure for NYYD: not above 0.25.

Turning to PQLV, the enrichment ratio was not above 0.25.

With RHAQ, the enrichment ratio is not above 0.25. As for KRDV, the enrichment ratio is not above 0.25. The same measure for RFII: not above 0.25. Next, PLMM: not above 0.25; AQSL: 7.47. Regarding GILD, the enrichment ratio worked out at 3.23. Next, HHRK: not above 0.25. Take SNEQ: the enrichment ratio is not above 0.25. The same measure for DQCC: not above 0.25; for TMAA: 8.44.

Take KSSG: the enrichment ratio is not above 0.25. As for YFPW, the enrichment ratio was not above 0.25. Next, IGYN: 0.356. On to EIPK, for which the enrichment ratio was not above 0.25. The same measure for HYVK: not above 0.25; for YCGF: not above 0.25; for AQRW: not above 0.25. Next, NVRM: not above 0.25.

In the case of MQCR, the enrichment ratio was not above 0.25.

As for KFNC, the enrichment ratio is not above 0.25. Next, GSHS: not above 0.25; SCLD: 0.618. Consider IFGI, for which the enrichment ratio was not above 0.25.

As for HKVT, the enrichment ratio was not above 0.25. Next, AAAN: not above 0.25; NPEP: not above 0.25. Next, LVVA: not above 0.25.

IFEH: the enrichment ratio was not above 0.25. The same measure for VEAG: 4.31; for PHIQ: not above 0.25. Next, PFPT: not above 0.25.

For the variant QKFC, the enrichment ratio was not above 0.25.

Turning to SEFP, the enrichment ratio is not above 0.25. The same measure for RELI: not above 0.25. Next, PSRF: not above 0.25; EICV: not above 0.25. Next, QYMP: not above 0.25; GEEA: not above 0.25; PMIG: not above 0.25.

As for FPCI, the enrichment ratio is not above 0.25. As to PAEF, the enrichment ratio is not above 0.25. The same measure for YTNA: not above 0.25; for RVEQ: not above 0.25; for MRAR: not above 0.25.

With KNCE, the enrichment ratio was not above 0.25. Next, KGCI: not above 0.25; DQEL: not above 0.25.

With MMPN, the enrichment ratio is not above 0.25.

As to VMHD, the enrichment ratio is not above 0.25. The same measure for RYGT: not above 0.25. Next, MSPV: not above 0.25; ARCS: 0.527; AVVC: not above 0.25. In the case of QVAI, the enrichment ratio is not above 0.25.

As for NIFK, the enrichment ratio was not above 0.25. Next, ISDP: not above 0.25.

Turning to IMMK, the enrichment ratio is not above 0.25. The same measure for LGLA: not above 0.25; for TMDT: not above 0.25; for KGIA: not above 0.25. The same measure for VGCM: 0.916; for RVYG: not above 0.25.

As for AFAA, the enrichment ratio was not above 0.25.

The values above are taken from a collection of fitness landscapes (doi:10.1126/science.1257360).
